These results are taken from PMC7933334, “The methyltransferase SETD2 couples transcription and splicing by engaging mRNA processing factors through its SHI domain” (Nature Communications, 2021).

What all share (assay): co-IP; Halo affinity purification of a Halo-tagged bait expressed in 293T (Magne HaloTag beads, AcTEV elution); endogenous partner detected by western blot; lysate with or without RNase where stated
Background: Immunoblotting shows a protein as a band on a membrane.

For assay [1], the target named is T1, Halo-SETD2 2114–2263 (human) (UniProt Q9BYW2).
T1 sequence: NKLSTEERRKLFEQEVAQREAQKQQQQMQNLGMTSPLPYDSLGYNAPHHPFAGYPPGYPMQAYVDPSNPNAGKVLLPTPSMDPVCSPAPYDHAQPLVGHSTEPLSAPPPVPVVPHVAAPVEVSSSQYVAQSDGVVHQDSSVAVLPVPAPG

Assay [2] has as its target T2, Halo-SETD2 2264–2564 (human) (UniProt Q9BYW2).
T2 sequence: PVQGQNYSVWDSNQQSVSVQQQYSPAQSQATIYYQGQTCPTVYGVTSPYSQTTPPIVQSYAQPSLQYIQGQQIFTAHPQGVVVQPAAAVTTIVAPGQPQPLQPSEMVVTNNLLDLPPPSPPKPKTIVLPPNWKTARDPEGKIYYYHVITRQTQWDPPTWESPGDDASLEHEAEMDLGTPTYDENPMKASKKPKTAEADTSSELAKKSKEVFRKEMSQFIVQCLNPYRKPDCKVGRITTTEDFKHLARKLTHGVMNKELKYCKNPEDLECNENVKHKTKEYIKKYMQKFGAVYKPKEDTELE

The target of assay [3] is T3, Halo-SETD2CΔ2164–2213 (human) (UniProt Q9BYW2).
T3 sequence: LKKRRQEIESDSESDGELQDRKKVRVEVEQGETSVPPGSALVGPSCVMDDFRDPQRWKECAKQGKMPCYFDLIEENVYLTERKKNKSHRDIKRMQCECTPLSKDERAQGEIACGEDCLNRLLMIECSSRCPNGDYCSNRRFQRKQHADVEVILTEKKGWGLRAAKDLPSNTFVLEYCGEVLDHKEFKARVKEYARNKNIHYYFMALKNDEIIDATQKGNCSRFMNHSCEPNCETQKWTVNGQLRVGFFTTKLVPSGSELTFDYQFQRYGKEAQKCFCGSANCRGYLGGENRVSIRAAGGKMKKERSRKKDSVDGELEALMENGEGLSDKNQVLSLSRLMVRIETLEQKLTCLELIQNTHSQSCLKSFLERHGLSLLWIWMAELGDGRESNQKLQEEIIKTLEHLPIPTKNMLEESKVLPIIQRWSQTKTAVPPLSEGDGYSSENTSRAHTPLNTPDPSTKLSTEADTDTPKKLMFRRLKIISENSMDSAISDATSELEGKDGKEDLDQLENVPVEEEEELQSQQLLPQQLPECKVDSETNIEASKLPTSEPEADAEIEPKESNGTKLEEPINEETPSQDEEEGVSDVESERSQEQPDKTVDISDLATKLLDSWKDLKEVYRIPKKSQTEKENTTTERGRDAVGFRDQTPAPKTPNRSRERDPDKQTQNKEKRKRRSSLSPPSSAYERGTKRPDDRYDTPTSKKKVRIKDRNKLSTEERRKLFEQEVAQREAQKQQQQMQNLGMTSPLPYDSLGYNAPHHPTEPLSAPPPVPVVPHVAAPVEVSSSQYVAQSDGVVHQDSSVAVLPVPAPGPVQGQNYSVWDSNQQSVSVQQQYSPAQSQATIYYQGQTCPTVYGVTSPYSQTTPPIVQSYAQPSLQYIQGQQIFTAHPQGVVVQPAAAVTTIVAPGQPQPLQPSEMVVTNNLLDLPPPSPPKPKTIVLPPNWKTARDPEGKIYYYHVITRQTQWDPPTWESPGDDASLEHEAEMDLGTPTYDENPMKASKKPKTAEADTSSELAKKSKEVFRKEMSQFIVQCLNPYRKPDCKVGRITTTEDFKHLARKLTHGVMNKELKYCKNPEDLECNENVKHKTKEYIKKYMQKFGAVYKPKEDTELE

The target in another assay is T4, Halo-ySet2 (yeast) (UniProt P46995).
T4 sequence: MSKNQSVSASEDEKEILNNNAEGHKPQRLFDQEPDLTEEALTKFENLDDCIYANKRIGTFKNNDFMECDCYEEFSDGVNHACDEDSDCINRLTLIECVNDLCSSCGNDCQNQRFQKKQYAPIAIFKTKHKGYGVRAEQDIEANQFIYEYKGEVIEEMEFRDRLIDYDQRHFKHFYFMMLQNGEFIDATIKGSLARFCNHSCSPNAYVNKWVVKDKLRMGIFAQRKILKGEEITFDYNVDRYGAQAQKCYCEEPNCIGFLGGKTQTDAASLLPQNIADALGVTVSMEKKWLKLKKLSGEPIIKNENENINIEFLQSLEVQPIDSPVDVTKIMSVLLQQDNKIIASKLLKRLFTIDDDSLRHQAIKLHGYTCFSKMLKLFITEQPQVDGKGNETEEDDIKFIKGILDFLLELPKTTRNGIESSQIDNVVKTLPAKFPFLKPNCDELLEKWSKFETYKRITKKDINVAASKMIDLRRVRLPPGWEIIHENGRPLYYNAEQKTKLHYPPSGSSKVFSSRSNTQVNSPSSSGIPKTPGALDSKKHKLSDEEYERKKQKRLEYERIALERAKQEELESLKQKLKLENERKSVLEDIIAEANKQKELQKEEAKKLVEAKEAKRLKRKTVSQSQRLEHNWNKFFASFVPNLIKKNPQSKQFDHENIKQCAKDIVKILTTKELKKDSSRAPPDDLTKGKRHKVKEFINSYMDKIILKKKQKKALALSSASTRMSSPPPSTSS

No constants are given. Whether binding was seen depends on the method and setting. Binding seen in cells or lysates may run through a third protein. Some binding calls cover weakened binding; strength is not graded here.

B1: hnRNP L (endogenous) (protein, UniProt P14866 1-589)
chain: MSRRLLPRAEKRRRRLEQRQQPDEQRRRSGAMVKMAAAGGGGGGGRYYGGGSEGGRAPKRLKTDNAGDQHGGGGGGGGGAGAAGGGGGGENYDDPHKTPASPVVHIRGLIDGVVEADLVEALQEFGPISYVVVMPKKRQALVEFEDVLGACNAVNYAADNQIYIAGHPAFVNYSTSQKISRPGDSDDSRSVNSVLLFTILNPIYSITTDVLYTICNPCGPVQRIVIFRKNGVQAMVEFDSVQSAQRAKASLNGADIYSGCCTLKIEYAKPTRLNVFKNDQDTWDYTNPNLSGQGDPGSNPNKRQRQPPLLGDHPAEYGGPHGGYHSHYHDEGYGPPPPHYEGRRMGPPVGGHRRGPSRYGPQYGHPPPPPPPPEYGPHADSPVLMVYGLDQSKMNCDRVFNVFCLYGNVEKVKFMKSKPGAAMVEMADGYAVDRAITHLNNNFMFGQKLNVCVSKQPAIMPGQSYGLEDGSCSYKDFSESRNNRFSTPEQAAKNRIQHPSNVLHFFNAPLEVTEENFFEICDELGVKRPSSVKVFSGKSERSSSGLLEWESKSDALETLGFLNHYQMKNPNGPYPYTLKLCFSTAQHAS
For B1, the binding result was “binds” in assay [1], “no binding” in assay [2], “no binding” in assay [3] and “no binding” with Halo-ySet2 (yeast).
